# Whole data set: some 2,900 compounds, median “NF-kB SEAP reporter activity, fold change vs agonist alone” near 0.99, cut for the highest 2% near 2.6. This is one part of the list.
# What was measured:
# RAW-Dual [1] = test: NF-kB SEAP reporter activity, fold change vs agonist alone; higher = enhanced NF-kB activity; details: library stock concentration (final ~1000-fold dilution): 10 mM
# Summary of the method: (§1)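 Reporter activity is given as fold change relative to agonist-alone wells. To measure it, 50 nL of library stock was pin-tooled onto RAW-Dual macrophages (50,000 cells/well, DMEM, 384-well plates), a PRR agonist followed 1 h later, and cells stayed at 37 °C, 5% CO2. Twenty hours on, supernatant was assayed for IRF (QuantiLuc luminescence) and NF-κB (QuantiBlue, 620 nm absorbance), and wells under 70% of agonist-control IncuCyte confluency in both mask sets were marked cytotoxic.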
# RAW-Dual [2] = test: NF-kB SEAP reporter activity, fold change vs agonist alone; cytotoxicity flag (confluency mask): not cytotoxic; higher = enhanced NF-kB activity
# Summary of the method: as §1
# RAW-Dual [3] = test: NF-kB SEAP reporter activity, fold change vs agonist alone; cytotoxicity flag (confluency mask): cytotoxic (confluency <70% of control); higher = enhanced NF-kB activity
# Summary of the method: as §1
# [4] = cytotoxicity flag (confluency mask): not cytotoxic, agonist: Imiquimod (TLR7) […]
# [5] = cytotoxicity flag (confluency mask): not cytotoxic, agonist: MPLA (TLR4) […]
# [6] = agonist: ODN 1826 (TLR9) 0.5 ug/mL
# [7] = agonist: Pam2CSK4 (TLR2/6) 0.1 ug/mL
# [8] = agonist: Pam3CSK4 (TLR2/1) 0.1 ug/mL
# [9] = cytotoxicity flag (confluency mask): cytotoxic (confluency <70% of control), agonist: Imiquimod (TLR7) […]
# [10] = cytotoxicity flag (confluency mask): cytotoxic (confluency <70% of control), agonist: MPLA (TLR4) […]
compound,measurement,setting,value
C/C=C(/C)C(=O)OC1c2c(ccc3ccc(=O)oc23)OC(C)(C)C1OC(=O)/C(C)=C\C (centres undefined),NF-kB SEAP reporter activity,RAW-Dual [1]; [4],1.01
same,NF-kB SEAP reporter activity,RAW-Dual [1]; [5],1.03
C/C=C(/C)C(=O)OC1c2c(ccc3ccc(=O)oc23)OC(C)(C)C1OC(=O)/C(C)=C\C (centres undefined) (library stock concentration (final ~1000-fold dilution): 10 mM),NF-kB SEAP reporter activity,RAW-Dual [2]; agonist: LPS (TLR4) 0.1 ug/mL,0.566
same,NF-kB SEAP reporter activity,RAW-Dual [2]; [6],1.04
same,NF-kB SEAP reporter activity,RAW-Dual [2]; [7],0.715
same,NF-kB SEAP reporter activity,RAW-Dual [2]; [8],1.02
C[C@@H]1O[C@@H](O[C@H]2C(=O)c3c(O)cc(O)cc3O[C@@H]2c2ccc(O)cc2)[C@H](O)[C@H](O)[C@H]1O,NF-kB SEAP reporter activity,RAW-Dual [1]; [4],0.949
same,NF-kB SEAP reporter activity,RAW-Dual [1]; [5],0.95
C[C@@H]1O[C@@H](O[C@H]2C(=O)c3c(O)cc(O)cc3O[C@@H]2c2ccc(O)cc2)[C@H](O)[C@H](O)[C@H]1O (library stock concentration (final ~1000-fold dilution): 10 mM),NF-kB SEAP reporter activity,RAW-Dual [2]; agonist: LPS (TLR4) 0.1 ug/mL,1.24
same,NF-kB SEAP reporter activity,RAW-Dual [2]; [6],0.943
same,NF-kB SEAP reporter activity,RAW-Dual [2]; [7],1.05
same,NF-kB SEAP reporter activity,RAW-Dual [2]; [8],1.14
O=C1NC(=O)/C(=C/c2ccc3c(c2)OC(F)(F)O3)S1,NF-kB SEAP reporter activity,RAW-Dual [1]; [4],0.418
same,NF-kB SEAP reporter activity,RAW-Dual [1]; [5],0.455
O=C1NC(=O)/C(=C/c2ccc3c(c2)OC(F)(F)O3)S1 (library stock concentration (final ~1000-fold dilution): 10 mM),NF-kB SEAP reporter activity,RAW-Dual [2]; agonist: LPS (TLR4) 0.1 ug/mL,0.268
same,NF-kB SEAP reporter activity,RAW-Dual [2]; [6],0.361
same,NF-kB SEAP reporter activity,RAW-Dual [2]; [7],0.13
same,NF-kB SEAP reporter activity,RAW-Dual [2]; [8],0.313
CNC1(C)C2CCC(C2)C1(C)C.Cl (centres undefined) (library stock concentration (final ~1000-fold dilution): 10 mM),NF-kB SEAP reporter activity,RAW-Dual [2]; agonist: LPS (TLR4) 0.1 ug/mL,1.09
same,NF-kB SEAP reporter activity,RAW-Dual [2]; [6],0.915
same,NF-kB SEAP reporter activity,RAW-Dual [2]; [7],1.08
same,NF-kB SEAP reporter activity,RAW-Dual [2]; [8],1.42
CNC1(C)C2CCC(C2)C1(C)C.Cl (centres undefined),NF-kB SEAP reporter activity,RAW-Dual [1]; [4],0.927
same,NF-kB SEAP reporter activity,RAW-Dual [1]; [5],1.05
CC(C)c1ccc2c(c1)c(SC(C)(C)C)c(CC(C)(C)C(=O)O)n2Cc1ccc(Cl)cc1,NF-kB SEAP reporter activity,RAW-Dual [1]; [4],0.498
same,NF-kB SEAP reporter activity,RAW-Dual [1]; [5],0.793
CC(C)c1ccc2c(c1)c(SC(C)(C)C)c(CC(C)(C)C(=O)O)n2Cc1ccc(Cl)cc1 (library stock concentration (final ~1000-fold dilution): 10 mM),NF-kB SEAP reporter activity,RAW-Dual [2]; agonist: LPS (TLR4) 0.1 ug/mL,1.2
same,NF-kB SEAP reporter activity,RAW-Dual [2]; [6],0.371
same,NF-kB SEAP reporter activity,RAW-Dual [2]; [7],0.135
same,NF-kB SEAP reporter activity,RAW-Dual [2]; [8],0.269
Cn1cc(-c2cc(Oc3cc(F)c(NC(=O)C4(C(=O)Nc5ccccc5)CC4)cc3F)ccn2)cn1 (library stock concentration (final ~1000-fold dilution): 10 mM),NF-kB SEAP reporter activity,RAW-Dual [2]; agonist: LPS (TLR4) 0.1 ug/mL,3.09
same,NF-kB SEAP reporter activity,RAW-Dual [2]; [6],0.863
same,NF-kB SEAP reporter activity,RAW-Dual [2]; [7],0.629
same,NF-kB SEAP reporter activity,RAW-Dual [2]; [8],0.98
Cn1cc(-c2cc(Oc3cc(F)c(NC(=O)C4(C(=O)Nc5ccccc5)CC4)cc3F)ccn2)cn1,NF-kB SEAP reporter activity,RAW-Dual [1]; [4],0.974
same,NF-kB SEAP reporter activity,RAW-Dual [1]; [5],1.71
Cc1nc(Nc2ncc(C(=O)Nc3c(C)cccc3Cl)s2)cc(N2CCN(CCO)CC2)n1,NF-kB SEAP reporter activity,RAW-Dual [1]; [9],0.405
same,NF-kB SEAP reporter activity,RAW-Dual [1]; [10],0.8
Cc1nc(Nc2ncc(C(=O)Nc3c(C)cccc3Cl)s2)cc(N2CCN(CCO)CC2)n1 (library stock concentration (final ~1000-fold dilution): 10 mM),NF-kB SEAP reporter activity,RAW-Dual [3]; agonist: LPS (TLR4) 0.1 ug/mL,0.704
same,NF-kB SEAP reporter activity,RAW-Dual [3]; [6],0.653
same,NF-kB SEAP reporter activity,RAW-Dual [3]; [7],0.256
same,NF-kB SEAP reporter activity,RAW-Dual [3]; [8],0.319
COc1cc(N2CCC(N3CCN(C)CC3)CC2)ccc1Nc1ncnc(Nc2ccccc2S(=O)(=O)C(C)C)n1 (library stock concentration (final ~1000-fold dilution): 10 mM),NF-kB SEAP reporter activity,RAW-Dual [2]; agonist: LPS (TLR4) 0.1 ug/mL,5.53
COc1ccc(CC2c3cc(OC)c(OC)cc3CC[N+]2(C)CCC(=O)OCCCCCOC(=O)CC[N+]2(C)CCc3cc(OC)c(OC)cc3C2Cc2ccc(OC)c(OC)c2)cc1OC (centres undefined) (library stock concentration (final ~1000-fold dilution): 10 mM),NF-kB SEAP reporter activity,RAW-Dual [2]; agonist: LPS (TLR4) 0.1 ug/mL,0.558
same,NF-kB SEAP reporter activity,RAW-Dual [2]; [6],0.627
same,NF-kB SEAP reporter activity,RAW-Dual [2]; [7],0.545
same,NF-kB SEAP reporter activity,RAW-Dual [2]; [8],0.686
COc1ccc(CC2c3cc(OC)c(OC)cc3CC[N+]2(C)CCC(=O)OCCCCCOC(=O)CC[N+]2(C)CCc3cc(OC)c(OC)cc3C2Cc2ccc(OC)c(OC)c2)cc1OC (centres undefined),NF-kB SEAP reporter activity,RAW-Dual [1]; [4],1.05
same,NF-kB SEAP reporter activity,RAW-Dual [1]; [5],0.871
CC(C(=O)O)c1ccc2c(c1)CC(=O)c1ccccc1S2 (centres undefined),NF-kB SEAP reporter activity,RAW-Dual [1]; [4],0.939
same,NF-kB SEAP reporter activity,RAW-Dual [1]; [5],0.989
CC(C(=O)O)c1ccc2c(c1)CC(=O)c1ccccc1S2 (centres undefined) (library stock concentration (final ~1000-fold dilution): 10 mM),NF-kB SEAP reporter activity,RAW-Dual [2]; agonist: LPS (TLR4) 0.1 ug/mL,1.44
same,NF-kB SEAP reporter activity,RAW-Dual [2]; [6],1.02
same,NF-kB SEAP reporter activity,RAW-Dual [2]; [7],1.26
same,NF-kB SEAP reporter activity,RAW-Dual [2]; [8],1.28
CN(CCNc1ccnc2cc(Cl)ccc12)CCNc1ccnc2cc(Cl)ccc12.Cl.Cl.Cl (library stock concentration (final ~1000-fold dilution): 10 mM),NF-kB SEAP reporter activity,RAW-Dual [3]; agonist: LPS (TLR4) 0.1 ug/mL,4.28
same,NF-kB SEAP reporter activity,RAW-Dual [3]; [6],0.547
same,NF-kB SEAP reporter activity,RAW-Dual [3]; [7],1.63
same,NF-kB SEAP reporter activity,RAW-Dual [3]; [8],2.17
CN(CCNc1ccnc2cc(Cl)ccc12)CCNc1ccnc2cc(Cl)ccc12.Cl.Cl.Cl,NF-kB SEAP reporter activity,RAW-Dual [1]; [9],0.958
same,NF-kB SEAP reporter activity,RAW-Dual [1]; [10],2.39
COc1cc(O)c2c(=O)cc(-c3ccc(O)cc3)oc2c1,NF-kB SEAP reporter activity,RAW-Dual [1]; [4],1.14
same,NF-kB SEAP reporter activity,RAW-Dual [1]; [5],1.24
COc1cc(O)c2c(=O)cc(-c3ccc(O)cc3)oc2c1 (library stock concentration (final ~1000-fold dilution): 10 mM),NF-kB SEAP reporter activity,RAW-Dual [2]; agonist: LPS (TLR4) 0.1 ug/mL,1.38
same,NF-kB SEAP reporter activity,RAW-Dual [2]; [6],1.21
same,NF-kB SEAP reporter activity,RAW-Dual [2]; [7],1.14
same,NF-kB SEAP reporter activity,RAW-Dual [2]; [8],1.64
COc1cc2c(cc1OC)C1Cc3ccc(OC)c(OC)c3CN1CC2.Cl (centres undefined),NF-kB SEAP reporter activity,RAW-Dual [1]; [4],0.869
same,NF-kB SEAP reporter activity,RAW-Dual [1]; [5],0.981
COc1cc2c(cc1OC)C1Cc3ccc(OC)c(OC)c3CN1CC2.Cl (centres undefined) (library stock concentration (final ~1000-fold dilution): 10 mM),NF-kB SEAP reporter activity,RAW-Dual [2]; agonist: LPS (TLR4) 0.1 ug/mL,1.17
same,NF-kB SEAP reporter activity,RAW-Dual [2]; [6],0.984
same,NF-kB SEAP reporter activity,RAW-Dual [2]; [7],1.2
same,NF-kB SEAP reporter activity,RAW-Dual [2]; [8],1.08
CCN(CC)CCOC(=O)C(c1ccccc1)c1ccccc1.Cl,NF-kB SEAP reporter activity,RAW-Dual [1]; [4],0.999
same,NF-kB SEAP reporter activity,RAW-Dual [1]; [5],1.13
CCN(CC)CCOC(=O)C(c1ccccc1)c1ccccc1.Cl (library stock concentration (final ~1000-fold dilution): 10 mM),NF-kB SEAP reporter activity,RAW-Dual [2]; agonist: LPS (TLR4) 0.1 ug/mL,1.05
same,NF-kB SEAP reporter activity,RAW-Dual [2]; [6],0.803
same,NF-kB SEAP reporter activity,RAW-Dual [2]; [7],0.843
same,NF-kB SEAP reporter activity,RAW-Dual [2]; [8],1.14

# Reference: the supplement of paper PMC10037445
